Binding data for three substances are collected here from article PMC8238248.

Amino acid sequences for entries named in this document (tags omitted). A change or cut given only in a name is not applied to a line headed by its entry. Chains listed by the source or under a name are the forms on record and can include a tag or linker. Residues count along the entry.
UniProt P08195, residues 102-630: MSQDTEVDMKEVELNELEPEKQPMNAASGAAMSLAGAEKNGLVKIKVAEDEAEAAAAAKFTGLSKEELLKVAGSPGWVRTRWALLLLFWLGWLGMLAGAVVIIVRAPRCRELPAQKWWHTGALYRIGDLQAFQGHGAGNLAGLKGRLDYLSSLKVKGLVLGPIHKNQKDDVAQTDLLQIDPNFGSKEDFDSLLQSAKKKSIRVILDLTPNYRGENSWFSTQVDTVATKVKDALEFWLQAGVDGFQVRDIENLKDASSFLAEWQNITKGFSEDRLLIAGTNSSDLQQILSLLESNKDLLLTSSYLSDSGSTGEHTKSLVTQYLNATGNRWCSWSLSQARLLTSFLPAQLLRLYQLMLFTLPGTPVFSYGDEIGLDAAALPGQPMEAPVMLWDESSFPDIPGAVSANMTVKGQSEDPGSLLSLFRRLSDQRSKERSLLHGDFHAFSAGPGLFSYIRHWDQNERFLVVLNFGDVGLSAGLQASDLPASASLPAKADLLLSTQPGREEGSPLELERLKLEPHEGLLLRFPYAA
UniProt P10852: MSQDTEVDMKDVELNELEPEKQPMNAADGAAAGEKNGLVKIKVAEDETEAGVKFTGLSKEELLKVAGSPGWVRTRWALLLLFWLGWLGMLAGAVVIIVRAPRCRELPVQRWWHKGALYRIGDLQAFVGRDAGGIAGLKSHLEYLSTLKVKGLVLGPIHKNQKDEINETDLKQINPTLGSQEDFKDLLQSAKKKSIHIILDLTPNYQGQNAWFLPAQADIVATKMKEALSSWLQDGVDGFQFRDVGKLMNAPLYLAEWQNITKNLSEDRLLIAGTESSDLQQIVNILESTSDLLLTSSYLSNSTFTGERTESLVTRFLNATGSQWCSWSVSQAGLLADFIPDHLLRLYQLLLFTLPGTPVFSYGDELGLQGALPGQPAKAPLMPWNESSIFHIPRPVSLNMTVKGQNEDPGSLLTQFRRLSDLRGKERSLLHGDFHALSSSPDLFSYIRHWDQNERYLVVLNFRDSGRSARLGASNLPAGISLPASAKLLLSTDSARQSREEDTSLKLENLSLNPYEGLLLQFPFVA
UniProt Q01650: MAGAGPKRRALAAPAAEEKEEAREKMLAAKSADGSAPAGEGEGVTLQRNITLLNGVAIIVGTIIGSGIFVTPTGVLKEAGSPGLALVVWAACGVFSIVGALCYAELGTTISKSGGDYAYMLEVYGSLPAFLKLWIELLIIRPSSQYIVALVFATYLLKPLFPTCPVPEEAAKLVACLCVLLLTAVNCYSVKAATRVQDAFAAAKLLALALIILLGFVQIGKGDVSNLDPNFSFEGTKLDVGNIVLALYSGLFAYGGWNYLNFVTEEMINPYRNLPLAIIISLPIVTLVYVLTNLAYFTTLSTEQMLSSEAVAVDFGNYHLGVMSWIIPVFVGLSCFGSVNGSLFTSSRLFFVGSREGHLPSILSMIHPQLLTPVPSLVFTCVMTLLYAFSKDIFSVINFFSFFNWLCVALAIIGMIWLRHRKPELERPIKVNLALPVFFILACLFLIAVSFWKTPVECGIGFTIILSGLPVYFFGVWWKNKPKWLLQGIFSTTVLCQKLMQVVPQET
human mutant (164S) L-type amino acid transporter 1 (LAT1)/SLC7A5 (Q01650, form named): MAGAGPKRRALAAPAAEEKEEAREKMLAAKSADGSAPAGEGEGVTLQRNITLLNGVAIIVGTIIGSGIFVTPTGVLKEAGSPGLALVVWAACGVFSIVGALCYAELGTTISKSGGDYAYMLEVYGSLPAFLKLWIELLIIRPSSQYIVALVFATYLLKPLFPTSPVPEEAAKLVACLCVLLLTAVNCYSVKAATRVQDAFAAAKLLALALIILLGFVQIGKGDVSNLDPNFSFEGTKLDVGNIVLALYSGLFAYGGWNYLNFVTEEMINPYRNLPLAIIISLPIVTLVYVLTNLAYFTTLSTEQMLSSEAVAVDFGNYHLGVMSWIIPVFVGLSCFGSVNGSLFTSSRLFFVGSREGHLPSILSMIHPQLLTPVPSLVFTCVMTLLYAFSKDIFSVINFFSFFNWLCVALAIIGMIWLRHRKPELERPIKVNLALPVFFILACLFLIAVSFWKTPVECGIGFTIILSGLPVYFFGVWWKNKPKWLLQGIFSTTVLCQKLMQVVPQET

For assay [1], the target named is endogenous human CD98 heavy chain (CD98hc/SLC3A2) (human (endogenous in HEK293, HeLa, HT29, MIA PaCa-2)) (UniProt P08195). Description: SDS-PAGE under non-reducing conditions with western blot; cell lysates run on SDS-PAGE under reducing or non-reducing conditions; WB with anti-LAT1 rabbit pAb; 125 kDa disulfide-linked complex against 40 kDa LAT1. In general terms: Immunoblotting shows a protein as a band on a membrane.

Assay [2] concerns the target endogenous mouse CD98 heavy chain (CD98hc/SLC3A2) (mouse (endogenous in NIH/3T3)) (UniProt P10852). The assay is described as above.
For assay [3] the target is unchanged. Description: co-IP; lysates of NIH/3T3 cell lines (150 mM NaCl, 50 mM Tris pH 7.4, 1% Nonidet P-40); IP with anti-mouse CD98hc mAb MB872 and protein G Sepharose at 4°C; DTT-free SDS sample buffer; WB with anti-human LAT1 rabbit pAb.

Results are given in words; binding and its absence hold for the method and conditions named. For some assays here: In cells and extracts the contact can be indirect. Some entries that bind do so weakly or less than the wild type.

Consider “endogenous human L-type amino acid transporter 1 (LAT1)/SLC7A5 (from UniProt Q01650 1-507)”, for which the binding result in assay [1] was “binds”.

For the substance “human mutant (164S) L-type amino acid transporter 1 (LAT1)/SLC7A5 (from UniProt Q01650 1-507)”, the binding result in assay [2] and in assay [3] was “no binding” each time.

For the substance “human native (164C) L-type amino acid transporter 1 (LAT1)/SLC7A5 (from UniProt Q01650 1-507)”, the binding result in assay [2] and in assay [3] was “binds” each time.
